# Some of the results follow.
# B1: chr6:38652254:38652255:-_ENSG00000124767_ENST00000373365|hu_hu|hu_hu_hu_mus_False|68_68 (ssRNA)
# RNA: GGGAGUUCUACAGUCCGACGAUCCGAGAACUUCAUAGCAGGGAAGUCAAGCUUCUGCAGGAGGGUCAUUCCAAGAACCCUCGUAUAAAAAUCCAGGGACUUCUUAGGAUCCUUAAUUCUUAGCAUCGUUUGCUGCAGUAGAAACAACAGAGGAUUGAGCAUCA
# B2: chr14:76904430:76904431:+_ENSMUSG00000022010_ENSMUST00000022587|mus_mus|mus_mus_mus_hu_True|8_28 (ssRNA)
# RNA: GGGAGUUCUACAGUCCGACGAUCUGCAGCCAAAAACACCCUCGUGGAAAAAAAGAGGGAACACCAGCAGCCUUGUAUAAGCUAGAUAAAAUCUUCUGGCUUUCCGCAGCUCAGGGCGAAACAGAAAUGGUGCUGGCUAAUUUACAACAGAGGAUUGAGCAUCA
# B3: chr12:16048344:16048345:+_ENSG00000023734_ENST00000419869|hu_hu|hu_hu_hu_mus_True|58_68 (ssRNA)
# RNA: GGGAGUUCUACAGUCCGACGAUCAGAUCGUCCAUAAGUAAUAACCAAAAUCUCUCCUUCAGGAAUAUAUUCCAUACUACUAACAGACAUAUUAAAAUUCAGAGAUUUCACUUCUGUCAUUGUGGCAUGAUCCCAGAGCCGAACCAACAGAGGAUUGAGCAUCA
# B4: chr4:56291666:56291667:+_ENSG00000134851_ENST00000381334|hu_hu|motif|central (ssRNA)
# RNA: GGGAGUUCUACAGUCCGACGAUCACAGUAUUUUUCCAUCACUUUUAGUUGUAAUGUACACUAUGUACAGAAAGAUAAUACGGCCGGUUUUAAACUAAAUAUAGAUGAACAAACAGCUUGUUAAAAACCAGAAUCAGGGCUUAUCAACAGAGGAUUGAGCAUCA
# B5: chrX:71549762:71549763:+_ENSMUSG00000019087_ENSMUST00000019231|mus_mus|mus_mus_mus_hu_False|8_8 (ssRNA)
# RNA: GGGAGUUCUACAGUCCGACGAUCAAACCCGUGUACUUCUUAUUGUUAGCACAACAUCACCAGAAAACGAUAACGACAGCCAAGCAGGACAGACAGUUAAGUAGUACUUCCACACUCCCAAACUCAGAGGAACCUCAAACCUUACAACAGAGGAUUGAGCAUCA
# B6: chr16:32231720:32231721:-_ENSMUSG00000035764_ENSMUST00000042732|mus_mus|motif|central (ssRNA)
# RNA: GGGAGUUCUACAGUCCGACGAUCUUGACAAAUUUAAUUCUCAAGGACCCCAAGAACCCCAGCGAGUCACUCUCUGUCCCGGAUUUUAUUAGAUUUAAAACAAAAUAUACAUACAGCAAUCAUGUAAAAAGUACAAAGAUUUUACAACAGAGGAUUGAGCAUCA
# B7: 114882305_114883836_1875_CDS_ENSG00000102024_ENST00000355899|human|control|control (ssRNA)
# RNA: GGGAGUUCUACAGUCCGACGAUCCAUGACCAUCUUGGGCUUUACUUCCACAAGGUCUUCAGGGAGAGCAUACACUCUGGCUCCGAUUCUUCUAGCCAUUGACACUGCAUACUUGGCAUUAUUGUGCUUGUCAUCUUCUGUUAGCAACAGAGGAUUGAGCAUCA
# B8: chr8:104447970:104447971:+_ENSG00000164934_ENST00000297579|hu_hu|hu_hu_hu_mus_False|48_98 (ssRNA)
# RNA: GGGAGUUCUACAGUCCGACGAUCAUACACUUCCCUGCUUCGACUUUUGUCCACAGGAAAGAUUCUAAUAGACUUAUCAAAGCUGGCAGACACAAACUCCUUCCCAGUGGGAGAGUAGUCCACAUCAAGUACUGCAGACACGUGCAACAGAGGAUUGAGCAUCA
# B9: chr18:12984129:12984130:+_ENSG00000085415_ENST00000262124|hu_hu|motif|central (ssRNA)
# RNA: GGGAGUUCUACAGUCCGACGAUCCUUUCUGCCAGCAGAAGAUCCAUUUAAUGAAUUCUGAAGACUUGGAAUAGUUGAACCGGGGGAAGGAUUUGAGGUUCCCUGCUGAGAACUCCCAUUGACUGGGCUCCCAUUACCUUUCAACAACAGAGGAUUGAGCAUCA
# B10: chr4:109034340:109034341:+_ENSMUSG00000028552_ENSMUST00000102729|mus_hu|FALSE|FALSE (ssRNA)
# RNA: GGGAGUUCUACAGUCCGACGAUCCUCUUCUCUAGCUUUUGCCAAUUCUUCUUCGUAAGUGGAGAUCUGCGAUUCCUGACUAGUUAAUUCAGCUUUCAGAGAAGAGAUCAGUUGGGCCUCCUCAGCACAUUUCUUUCUGACUUCCAACAGAGGAUUGAGCAUCA
# B11: 83080778_83080898_180_3pUTR_ENSG00000179104_ENST00000321196|human|control|control (ssRNA)
# RNA: GGGAGUUCUACAGUCCGACGAUCUGGGAGGGACAAGGCGAACCGCCUCCCCUCGCCGCCUCCCGGGCGCACUGCUCCGGUGUCGCUCGGGCGGACUCCGGCCGCCAAGGCAGCUGCUGCACAUUCAAUGUUUAUUAGCUCCCUCAACAGAGGAUUGAGCAUCA
# B12: chr1:39494447:39494448:+_ENSG00000168653_ENST00000372967|hu_mus|hu_hu_hu_mus_False|8_18 (ssRNA)
# RNA: GGGAGUUCUACAGUCCGACGAUCGCACCGAGCGGCGUUCUUAUAGGGCUGUUCUGCGCUUAGGAACAUAAAGUGCCGGUCCAGGCUGAUGCCCAGCUUUUUCUGUAUGUCAAGGAAAGGCAUGGCCGAUGCUCGUGCUUGUCACAACAGAGGAUUGAGCAUCA
# B13: chr10:72184726:72184727:+_ENSG00000148730_ENST00000373218|hu_hu|motif|central (ssRNA)
# RNA: GGGAGUUCUACAGUCCGACGAUCUCAUGUUAAACUACUCCCAAAUUCUUAACCCACAGAAACUGACAGAUAAUGUUUACGGUUUUAACAUACUAAAUUUAGGGUAAUUUUUUACACAGCAAUAGAUAACUAAUACAGGUGGAACAACAGAGGAUUGAGCAUCA
# B14: chr15:11913776:11913777:-_ENSMUSG00000022205_ENSMUST00000022816|mus_mus|FALSE|FALSE (ssRNA)
# RNA: GGGAGUUCUACAGUCCGACGAUCGUACCACAGUUAAGAUUGUAAUGAUCUGACUUUAUUUUACACACUAGGUAGGGGGCACAAAGCAAUCCUCUUUAAUAAACUUGACAAUUAGCUUCACUUAGAACAUUUUAAUAAUGCACACAACAGAGGAUUGAGCAUCA
# B15: chr16:17043922:17043923:+_ENSMUSG00000063358_ENSMUST00000069107|mus_mus|motif|central (ssRNA)
# RNA: GGGAGUUCUACAGUCCGACGAUCACGGCCUGCUGCCAGAACUCUCUGGACUGAAGGAAUUCCGUGAAAGUAUAAAAGCUGCGGCGGCCAGAAACUGCCCCUCUGAAAGGCUCAAAGGAGUCAAGAGUGGGUAAGCUGAGACGGCAACAGAGGAUUGAGCAUCA
# B16: chr12:48362563:48362564:+_ENSG00000134291_ENST00000256686|hu_hu|hu_hu_hu_mus_False|48_68 (ssRNA)
# RNA: GGGAGUUCUACAGUCCGACGAUCUCCGUCAAGCCCUUCGAUAGACCCUUGCGGGGGAAACUGUAAUAAUUCUAACUGGGGAAGGAAAAAAAAAGCCAAAAACUUUCCAAAAAGCGGGGGUGGGGUGAGGCGGGAGGGGGAGGUCAACAGAGGAUUGAGCAUCA
# B17: chr16:45382771:45382772:-_ENSMUSG00000022661_ENSMUST00000163230|mus_mus|mus_mus_mus_hu_True|8_18 (ssRNA)
# RNA: GGGAGUUCUACAGUCCGACGAUCCUGGGUCAUGUUAUAAGACAAAUGGACAGGGAGGGCAUGCUUCUCAAAAAAUGUGAGCUAUUGUCUAAGACUAACAAUAUUUAUCUAGCUAUAUAAAAAUAAGUUAAAUGGACGUUAAGACAACAGAGGAUUGAGCAUCA
# B18: chr14:78183846:78183847:+_ENSG00000119705_ENST00000557342|hu_hu|hu_hu_hu_mus_False|8_78 (ssRNA)
# RNA: GGGAGUUCUACAGUCCGACGAUCUCUCAGAAAUCUUUCUUCAUCAGAUGUUUGAGCUGUUUGCGGAGCCUUUGCUCUUUGAGCUUGAACGUGGAUCUAUGGGAGGGAAAGCACUGUCAGAAAAGGUUGUAGUGCAUUUAAAGACAACAGAGGAUUGAGCAUCA
# B19: 50811376_50811496_1883_3pUTR_ENSG00000008196_ENST00000393655|human|control|control (ssRNA)
# RNA: GGGAGUUCUACAGUCCGACGAUCGCAUUGACACCAACGUUUCUCCGAUUUUCUUCCAAUAAGUUAGCGUUUUUCUCAUGUUUAGUCUUAUGUUUAUUUUCCAAAGGGAAGGGGAAAUCAUGGUUUUCUUUUAUUAUCAGUAUUCAACAGAGGAUUGAGCAUCA
# B20: chr7:36537692:36537693:-_ENSMUSG00000043671_ENSMUST00000051377|mus_hu|FALSE|FALSE (ssRNA)
# RNA: GGGAGUUCUACAGUCCGACGAUCCAAUUUAUUUUCCAACUUCACAUUUUCUUCUUGGGCUGGAAAGUCUUCAGAAACUUCUGUGGCUCUUAUUUCUCUUCUUUGCCGGAUGGACAUCAUGAUGUCAGACUUACAUGCAUUGUUCAACAGAGGAUUGAGCAUCA
# B21: chr2:202488911:202488912:-_ENSG00000155755_ENST00000286196|hu_mus|hu_hu_hu_mus_False|58_98 (ssRNA)
# RNA: GGGAGUUCUACAGUCCGACGAUCAUUGAAACAUUUUCAUAAUAUUGCAGUAGCAUUUCAGCAUUAUGUAACAAAAGAUCUAUUACAAAUACAUGUAUCUUAUAAAAAUACACUUAAAAACACGAGUGGGGAGCGCAGGCGCCACAACAGAGGAUUGAGCAUCA
# B22: 89251860_89270157_1664_CDS_ENSG00000065243_ENST00000370521|human|control|control (ssRNA)
# RNA: GGGAGUUCUACAGUCCGACGAUCUAAAAAAUCUUCUAACCUCAGAAAUUUUACAGCACACAGAGACCGCCAAUCACGCCAAUAAACUGAAAUUUCCAGUUCACGUGACCUGUCCAGUUCCAGUGUAAACUUCUGGUCCCAUGACAACAGAGGAUUGAGCAUCA
# Biological target: T1, UNK ZnF1-3 (human, UniProt Q9C0B0 31-174)
# T1 sequence: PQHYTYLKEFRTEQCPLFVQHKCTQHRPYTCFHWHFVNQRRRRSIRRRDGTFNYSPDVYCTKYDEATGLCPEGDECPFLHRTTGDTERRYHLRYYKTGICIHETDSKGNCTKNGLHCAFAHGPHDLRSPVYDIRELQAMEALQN
# Assay: nsRBNS (natural sequence RNA bind-n-seq); RBNS binding buffer (assumed for nsRBNS): 25 mM Tris pH 7.5, 150 mM KCl, 3 mM MgCl2, 0.01% Triton X-100, 500 ug/ml BSA, 20 U/ml SUPERase-In, 4 C; UNK is unkempt and MSI1 is Musashi-1; names of the RNAs are library labels; protein concentration not given here; high values mean tight binding
row,Binder,binding signal
1,B1,0.741 enrichment R
2,B2,1.9 enrichment R
3,B3,0.853 enrichment R
4,B4,1.19 enrichment R
5,B5,1.56 enrichment R
6,B6,2.25 enrichment R
7,B7,0.672 enrichment R
8,B8,0.887 enrichment R
9,B9,0.834 enrichment R
10,B10,0.575 enrichment R
11,B11,0.656 enrichment R
12,B12,0.801 enrichment R
13,B13,0.665 enrichment R
14,B14,1.38 enrichment R
15,B15,1.16 enrichment R
16,B16,2.81 enrichment R
17,B17,2.36 enrichment R
18,B18,1.69 enrichment R
19,B19,0.547 enrichment R
20,B20,0.431 enrichment R
21,B21,0.935 enrichment R
22,B22,0.869 enrichment R
